Test results taken from the RNAGym collection of RNA variant scans (doi:10.7554/elife.90254).
Read counts are not given, so values of variants with three or more changes are uncertain.

B1: LINE1-mini (parent)
chain: GGCAGAGCUCAACACAGCGUGGCAAAGUGGCUGUGGCUAGACUGCC

Variants of: B1
Experiment: self-cleavage, relative activity (ratio to wild type); higher = more cleavage; in vitro, sequencing; the parent is a self-cleaving ribozyme
With C10U C13A U28C G44U the self-cleavage was 0.02.
In the case of C10U A12U U20A A26G U43A, the self-cleavage is reported as 0.02.
For C10U C13G A25C U28A C46G, the self-cleavage was 0.01.
For C10U C18A G19U G36C, the self-cleavage was 0.01.
With C10G C23A G30U G40C the self-cleavage was 0.01.
Variant C10G U28A G29U A39U has a self-cleavage of 0.05.
In the case of C10G C15G C45A, the self-cleavage is reported as 0.03.
Variant C10U C15U C45G has a self-cleavage of 0.14.
Work on C10U A16U A41C yielded a self-cleavage of 0.02.
C10U C15A G22A G40A G44A gave a self-cleavage of 0.02.
For C10G G29U G36U, the self-cleavage was 0.02.
With C10U C13G G21C A25C G33C G44U the self-cleavage was 0.01.
C10U C13G C23U gave a self-cleavage of 0.17.
C10U C31G C42A gave a self-cleavage of 0.02.
C10G U34C C37U showed a self-cleavage of 0.01.
C10U C13U G33C C46G showed a self-cleavage of 0.01.
C10U A25C A41G showed a self-cleavage of 0.01.
In the case of C10U C15A C23A A26U, the self-cleavage is reported as 0.01.
C10G C23G U38A gave a self-cleavage of 0.01.
C10U A12C G27A showed a self-cleavage of 0.02.
Work on C10U A11U A14C C31U A41C C45G yielded a self-cleavage of 0.01.
C10G G17A A41G gave a self-cleavage of 0.05.
In the case of C10U C15U G17U G30C C45U, the self-cleavage is reported as 0.06.
C10U C31G C45U gave a self-cleavage of 0.02.
Variant C10U C15A A41U G44C C46G has a self-cleavage of 0.04.
C10U C15U G22C showed a self-cleavage of 0.12.
C10G G22A G27C showed a self-cleavage of 0.06.
With C10U A12C G27U U38G the self-cleavage was 0.01.
C10G G21U C23U C45A gave a self-cleavage of 0.06.
C10G G21U G30U A41U showed a self-cleavage of 0.04.
For C10U G17U G29C C45A, the self-cleavage was 0.04.
Work on C10G G29A U32C C42U yielded a self-cleavage of 0.01.
With C10U A14C G33C the self-cleavage was 0.01.
With C10U G17U C45G the self-cleavage was 0.
With C10U A16G C37G the self-cleavage was 0.02.
In the case of C10G C23U C31G A39U, the self-cleavage is reported as 0.01.
In the case of C10G U20A A26U, the self-cleavage is reported as 0.05.
Variant C10U A24C G29C U32A U38C A39U has a self-cleavage of 0.02.
Work on C10U A16U U43C yielded a self-cleavage of 0.03.
Work on C10U G17U G30A yielded a self-cleavage of 0.2.
C10U A16G U20A G21C A26G G30A G36C U38G showed a self-cleavage of 0.
For C10U A14U C42U, the self-cleavage was 0.03.
C10G U20G C37A showed a self-cleavage of 0.
C10G G17U U28A gave a self-cleavage of 0.05.
For C10U A24U A26C A41C, the self-cleavage was 0.03.
C10U C37U G44C showed a self-cleavage of 0.03.
C10G G22A U28C gave a self-cleavage of 0.03.
With C10G G27U A39G A41U the self-cleavage was 0.01.
In the case of C10U A12U C23A A41U, the self-cleavage is reported as 0.04.
C10U A39G C45G showed a self-cleavage of 0.04.
For C10G G17A U32C, the self-cleavage was 0.03.
For C10G G33U A39G, the self-cleavage was 0.01.
In the case of C10U G17A C31A G36C, the self-cleavage is reported as 0.02.
For C10G C23U U34A C46G, the self-cleavage was 0.02.
Work on C10U A11C G19A G30C yielded a self-cleavage of 0.04.
For C10U C23A C31G G40C U43C, the self-cleavage was 0.02.
C10G U28G G35A gave a self-cleavage of 0.04.
With C10G C15U G17U G36C U43C G44A C46A the self-cleavage was 0.01.
Variant C10U G17C G29C has a self-cleavage of 0.03.
For C10G G17C A25G G30A U32G A39U, the self-cleavage was 0.01.
Work on C10U C18U G19U G30U G44C yielded a self-cleavage of 0.08.
For C10U C13U A39C C42G C46U, the self-cleavage was 0.03.
Variant C10G C15G G19C A24U G30C G36C U38G G40A has a self-cleavage of 0.
Work on C10U C18A C45A yielded a self-cleavage of 0.13.
C10G G27U U32G showed a self-cleavage of 0.05.
With C10U C37A A41U the self-cleavage was 0.02.
In the case of C10U A25U G30C, the self-cleavage is reported as 0.13.
C10U A11G G40U gave a self-cleavage of 0.01.
C10G G35U C42A gave a self-cleavage of 0.
For C10U A12G A16G G30C G40U A41G, the self-cleavage was 0.
Work on C10U A14C G17U G27U G33U G36C U38C G40U yielded a self-cleavage of 0.
Work on C10G G17C G35A A39G C45A yielded a self-cleavage of 0.
Variant C10U A12G C23A G44U has a self-cleavage of 0.03.
Variant C10U C18U C23A has a self-cleavage of 0.4.
Variant C10G G33U C45A has a self-cleavage of 0.01.
In the case of C10G G36U A39U, the self-cleavage is reported as 0.
C10G G19A G40A U43C gave a self-cleavage of 0.01.
In the case of C10U A24G U32A, the self-cleavage is reported as 0.03.
Variant C10U C31A C46G has a self-cleavage of 0.12.
With C10U A16G G22A A25U the self-cleavage was 0.41.
Variant C10U C13U A39G has a self-cleavage of 0.17.
Variant C10U C23A A26C has a self-cleavage of 0.19.
For C10G C15G A24G G36C, the self-cleavage was 0.01.
Variant C10G G19U U43C has a self-cleavage of 0.03.
In the case of C10G G22C A24U, the self-cleavage is reported as 0.06.
C10G G17A G27U showed a self-cleavage of 0.04.
For C10U A16C A41G, the self-cleavage was 0.03.
C10U C31G U32G showed a self-cleavage of 0.04.
Variant C10G G19C G44A has a self-cleavage of 0.04.
Variant C10U C42G C46A has a self-cleavage of 0.02.
With C10U A11G G27A A41U the self-cleavage was 0.01.
With C10U A11U G19C G36C C37G the self-cleavage was 0.01.
Work on C10U C15A A41U yielded a self-cleavage of 0.04.
Variant C10U C45G C46G has a self-cleavage of 0.06.
Work on C10U A11C U43C yielded a self-cleavage of 0.06.
C10U C13A C23U showed a self-cleavage of 0.06.
C10U C18G C37G A39C showed a self-cleavage of 0.06.
Work on C10G C23G G30U C31U yielded a self-cleavage of 0.09.
With C10U G19A G27U the self-cleavage was 0.13.
With C10G G22U G44A the self-cleavage was 0.06.
C10U A14U U20C G36U gave a self-cleavage of 0.01.
With C10G C23G G27A the self-cleavage was 0.2.
C10G C31A U32A A39U A41C gave a self-cleavage of 0.
C10U C13A A14G gave a self-cleavage of 0.02.
Work on C10G G22U A39G G44C yielded a self-cleavage of 0.01.
Work on C10G G19A G29U U38G yielded a self-cleavage of 0.09.
With C10G C23G A26C the self-cleavage was 0.35.
Variant C10U A12C C13G G27U C31A has a self-cleavage of 0.02.
C10G G35A G36U showed a self-cleavage of 0.02.
For C10U C18U G29C, the self-cleavage was 0.1.
For C10U C18U G29A, the self-cleavage was 0.61.
C10G U34A C46G showed a self-cleavage of 0.01.
C10U C15U A26G U38C C45U gave a self-cleavage of 0.06.
Work on C10U A11G G33U U34G yielded a self-cleavage of 0.02.
In the case of C10U A12U G30U C37A, the self-cleavage is reported as 0.01.
C10U A26C G33A G40U gave a self-cleavage of 0.01.
With C10G G19A A25U the self-cleavage was 0.21.
With C10G C23U G27C G29C the self-cleavage was 0.03.
For C10G C15A U34G, the self-cleavage was 0.01.
Work on C10U A12C C23A G40C yielded a self-cleavage of 0.01.
C10U A12C C23A C31U C42A gave a self-cleavage of 0.01.
For C10U A16C A39C C42A, the self-cleavage was 0.02.
Variant C10G U20C G40C has a self-cleavage of 0.02.
For C10G G17U G35A, the self-cleavage was 0.01.
For C10U A14G G21U A26C C31G, the self-cleavage was 0.01.
In the case of C10G C18A G27U U38C, the self-cleavage is reported as 0.01.
Work on C10U C31A G33U yielded a self-cleavage of 0.03.
C10U C13U A14C A25C showed a self-cleavage of 0.02.
C10U C42A C45G gave a self-cleavage of 0.
For C10G C18A A41U, the self-cleavage was 0.01.
In the case of C10U A14U C37U C45A, the self-cleavage is reported as 0.07.
Work on C10U C18A A25C G29U C42U yielded a self-cleavage of 0.29.
With C10G G17C G29U G36U G40A the self-cleavage was 0.01.
With C10G U20G U38A the self-cleavage was 0.
Variant C10G U20G U38G has a self-cleavage of 0.
For C10G C18A G44U, the self-cleavage was 0.01.
With C10U G17U C42U the self-cleavage was 0.18.
With C10U A14U U34A the self-cleavage was 0.43.
Work on C10U C15G C23A A26U G33U G40A yielded a self-cleavage of 0.03.
C10G G29U G30U showed a self-cleavage of 0.08.
For C10U A14G G19U, the self-cleavage was 0.08.
For C10G C18U G33U G36U C42A, the self-cleavage was 0.
With C10U A16C G19C G33A the self-cleavage was 0.04.
With C10G G27A U28C U32C U38A U43G the self-cleavage was 0.
Work on C10U A25C U32G yielded a self-cleavage of 0.18.
Work on C10G G17C U34C G40U yielded a self-cleavage of 0.02.
For C10U A24C C37A, the self-cleavage was 0.02.
In the case of C10U C13G U28A G36A, the self-cleavage is reported as 0.04.
In the case of C10U C13G C15A G22A A41U, the self-cleavage is reported as 0.04.
C10G G19A G40A showed a self-cleavage of 0.
Variant C10U C13G C15G U20C U28C has a self-cleavage of 0.04.
With C10G G40A C42U the self-cleavage was 0.01.
In the case of C10G G29A C42U, the self-cleavage is reported as 0.06.
Work on C10G G19C A24C G44A yielded a self-cleavage of 0.01.
In the case of C10U A11C C15U C18A G27U, the self-cleavage is reported as 0.01.
For C10U A11G C23U G36A, the self-cleavage was 0.01.
In the case of C10U C18A G19A C31G U43A, the self-cleavage is reported as 0.08.
For C10G G22U U34A, the self-cleavage was 0.02.
Work on C10G C31U A41C yielded a self-cleavage of 0.02.
For C10U A26C C45A, the self-cleavage was 1.18.
With C10G G19A G21U U28A G29C C37G the self-cleavage was 0.
With C10G G27A U32A G35C G36U the self-cleavage was 0.01.
Variant C10U G17C U34G C46A has a self-cleavage of 0.01.
For C10U C18U G44A, the self-cleavage was 0.34.
C10U A39C C46G showed a self-cleavage of 0.04.
For C10U A11G U20C G29C, the self-cleavage was 0.01.
Variant C10U A16C G22A has a self-cleavage of 0.04.
